# Paper PMC4336329 (PLoS ONE, 2015)
# Out of some 310,000 compounds screened, about 2,200 (0.71%) showed an effect of 50% or more. The effect is printed as a negative number. This is one part of the list.
# Target: human ether-à-go-go-related gene (hERG) potassium channel (human, UniProt Q12809)
# Assay: primary screen, population patch clamp on CHO cells stably expressing hERG
# human ether-à-go-go-related gene (hERG) potassium channel, sequence (Q12809 whole entry, looked up): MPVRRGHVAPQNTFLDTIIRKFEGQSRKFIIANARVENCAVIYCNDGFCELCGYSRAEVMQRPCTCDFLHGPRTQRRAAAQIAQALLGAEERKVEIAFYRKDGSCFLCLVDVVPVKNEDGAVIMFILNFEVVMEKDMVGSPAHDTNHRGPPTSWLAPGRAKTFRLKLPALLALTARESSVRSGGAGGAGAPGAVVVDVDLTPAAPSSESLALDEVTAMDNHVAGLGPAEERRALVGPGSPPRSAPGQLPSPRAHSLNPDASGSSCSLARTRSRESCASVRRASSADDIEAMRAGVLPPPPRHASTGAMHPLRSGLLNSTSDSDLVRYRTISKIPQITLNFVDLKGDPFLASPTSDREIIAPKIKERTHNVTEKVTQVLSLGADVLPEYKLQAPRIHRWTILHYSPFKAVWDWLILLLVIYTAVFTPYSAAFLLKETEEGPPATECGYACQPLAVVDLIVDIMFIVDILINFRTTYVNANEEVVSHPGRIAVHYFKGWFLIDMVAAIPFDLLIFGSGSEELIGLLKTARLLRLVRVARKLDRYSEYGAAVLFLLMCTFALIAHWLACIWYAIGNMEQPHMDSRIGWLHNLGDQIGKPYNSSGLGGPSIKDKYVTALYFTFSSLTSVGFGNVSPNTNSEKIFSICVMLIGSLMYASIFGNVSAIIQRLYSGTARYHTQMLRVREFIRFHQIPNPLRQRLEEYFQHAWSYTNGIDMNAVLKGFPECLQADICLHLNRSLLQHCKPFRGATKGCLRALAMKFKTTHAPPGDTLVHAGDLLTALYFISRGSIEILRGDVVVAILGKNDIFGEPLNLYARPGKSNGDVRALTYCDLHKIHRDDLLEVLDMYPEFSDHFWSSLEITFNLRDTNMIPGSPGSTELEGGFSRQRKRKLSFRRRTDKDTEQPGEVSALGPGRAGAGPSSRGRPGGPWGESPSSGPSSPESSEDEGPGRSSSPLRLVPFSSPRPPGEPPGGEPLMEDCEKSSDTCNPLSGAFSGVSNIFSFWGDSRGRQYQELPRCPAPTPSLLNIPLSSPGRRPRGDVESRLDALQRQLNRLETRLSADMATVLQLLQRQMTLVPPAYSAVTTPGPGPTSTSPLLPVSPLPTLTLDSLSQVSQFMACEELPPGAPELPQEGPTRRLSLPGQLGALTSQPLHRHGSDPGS
row,Structure (SMILES),"hERG current change (%, negative = inhibition) at 1uM"
1,CC(c1ccccc1)N(CC(=O)NC1CCCCC1)S(=O)(=O)c1cccc(C(F)(F)F)c1 (stereo not drawn),-4.81%
2,CCCCNC(=O)C(=O)NC(C)CCc1ccccc1 (stereo not drawn),7.5%
3,CCOC(=O)c1cc(-c2ccc(/C=C3/C(=O)N(c4ccc(C(=O)O)cc4)N=C3C)o2)ccc1Cl,4.57%
4,CNC(=O)/C(=C\c1ccc2c(c1)OCO2)NC(=O)c1ccc(Br)cc1,-2.73%
5,COc1ccc(-c2csc(NC(=O)CSc3nnnn3C)n2)c(OC)c1,7.91%
6,CCN(CC(=O)Nc1ccccc1OC)C(=O)c1cc(-c2ccccc2)nn1-c1ccccc1,-5.49%
7,O=C1c2ccccc2C(=O)N1CCCSc1nc2ccccc2o1,15.4%
8,CCc1nccn1S(=O)(=O)c1ccc2ccc(C)cc2c1,9.91%
9,CN(CC(=O)Nc1ccc(N2CCOCC2)cc1)CC(=O)Nc1cccc(C#N)c1,11.4%
10,CCOC(=O)C1(CCc2ccccc2)CCN(C(=O)C2CCCO2)CC1 (stereo not drawn),5.8%
11,COc1ccccc1NC(=O)Nc1nc(CC(=O)Nc2ccc(OC)c(OC)c2)cs1,6.03%
12,CCOC(=O)c1cc(C(=O)NC(C)c2ccccc2)c(C)[nH]c1=O (stereo not drawn),7.73%
13,O=C1CCCN1S(=O)(=O)c1ccccc1,5.5%
14,CCCc1nc(-c2cc3cc(C)ccc3[nH]c2=O)no1,9.86%
15,Cc1ccc(CN2CCN(c3ncccn3)CC2)c(C)c1,5.69%
16,COc1ccc2oc(C(=O)OCC(=O)NCc3ccco3)c(C)c2c1,2.69%
17,CCOC(=O)C1CCN(C(=O)CSc2ccccc2Cl)CC1,6.31%
18,COc1ccc(CNS(=O)(=O)c2ccc(-n3cnnn3)c(C)c2)cc1,-2.4%
19,COc1ccc(S(=O)(=O)NCc2cccnc2)cc1,14.4%

row,Structure (SMILES),"hERG current change (%, negative = inhibition) at 1uM"
1,COCCCn1c(SCC(=O)c2ccccc2)nc2ccccc2c1=O,17.7%
2,CC1CC(C)CN(S(=O)(=O)c2ccc3c(c2)oc(=O)n3CC(=O)NCc2cccnc2)C1 (stereo not drawn),2.17%
3,Fc1ccc(OCCOCCNCC2CCCO2)cc1 (stereo not drawn),10.1%
4,N#C/C(=C\c1ccc(C#N)cc1)C(=O)N1CCCC1,9.12%
5,CC(=O)c1cnc(Nc2cccc(Cl)c2Cl)s1,15.5%
6,CN(C(=O)Cn1cc([N+](=O)[O-])ccc1=O)C1CCCCC1,15.2%
7,COc1ccc(OC)c(NC(=O)Cc2ccc(NC3=NC4CS(=O)(=O)CC4S3)cc2)c1 (stereo not drawn),14.4%
8,CC1(C)Cc2c(c(N3CCCC3)nc3sc(C(=O)Nc4ccccc4)c(N)c23)CO1,21.2%
9,Cc1ccc(C(=O)N[C@H](C(=O)OCC(=O)c2ccc[nH]2)C(C)C)cc1,14.1%
10,CCOc1ccccc1NC(=O)CCS(=O)(=O)c1cccc2nsnc12,9.36%
11,O=C(NC12CC3CC(CC(C3)C1)C2)N1CCN(c2ccccc2)CC1,2.22%
12,Cc1cccc(N(C)S(=O)(=O)c2cc3c(cc2C)n(C)c(=O)c(=O)n3C)c1,-16%
13,CCOC(=O)N1CCN(C(=O)C2CCCCC2)CC1,1.54%
14,Cc1cccc(-n2c(Cc3cc(=O)[nH]c(=O)[nH]3)nnc2SCC(=O)N2CCCCC2)c1,0.257%
15,COc1nnc(-c2ccc(N3CCOCC3)c(NC(=O)C3CCCCC3)c2)c2ccccc12,4.38%
16,CCOC(=O)N1CCC2(CC1)CC(=O)c1cc(O)ccc1O2,-0.519%
17,CCc1ccc(OCCCC(=O)Nc2ccc(S(N)(=O)=O)cc2)cc1,12%
18,COc1ccccc1NC(=O)c1cc(-c2cc(OC)c(OC)c(OC)c2)nc2ccccc12,8.92%
19,COc1ccc2c(c1O)C(=O)c1ccccc1C2=O,6.18%

row,Structure (SMILES),"hERG current change (%, negative = inhibition) at 1uM"
1,Cc1nn(CC(C)C)c(Cl)c1C(=O)N(c1ccc(Cl)cc1F)S(C)(=O)=O,8.01%
2,Cc1cc(Cl)c(OCCCCNC(C)(C)C)c(Br)c1.O=C(O)C(=O)O,-9.56%
3,O=C(NNC1CC(=O)N(c2cccc(Cl)c2)C1=O)c1cccnc1 (stereo not drawn),-1.03%
4,N#Cc1cccc(OC(=O)c2ccc3c(=O)n4c(nc3c2)CCC4)c1,14.9%
5,COc1ccccc1-c1cc(C(F)(F)F)nc(S(=O)(=O)CCCC(=O)N2CCCCC2C)n1 (stereo not drawn),2.61%
6,CC(C)CNS(=O)(=O)c1ccc(CCC(=O)N2CCN(Cc3ccccc3)CC2)cc1,-20.7%
7,CC(C)(C)OC(=O)NCCCCCNC(=O)c1[nH]cnc1C(=O)Nc1nccs1,3.91%
8,CCOc1cc(/C=N/O)cc(Br)c1OC,11.8%
9,N=C1/C(=C\c2ccc(Br)o2)C(=O)N=C2SC(CC(=O)N3CCCCC3)=NN12,11.5%
10,O=C(NNC(=O)C12CC3CC(CC(C3)C1)C2)c1ccco1,17.1%
11,COc1ccc(OC)c(C(c2nnnn2Cc2ccccc2)N2CCN(C3CCCCC3)CC2)c1.Cl (stereo not drawn),-33.1%
12,O=C(O)c1cccc(Sc2cc(Cl)ccc2C(=O)O)c1,10.5%
13,COc1ccccc1-c1noc(-c2ccccc2C(=O)Nc2cccnc2)n1,5.23%
14,Fc1ccc2nc(C(F)(F)F)cc(N3CCOCC3)c2c1,13%
15,CC(=O)Nc1ccc(NC(=O)CCCn2cnc3ccccc3c2=O)cc1,8.6%
16,Cc1cc(C)c(N2C(=O)C3C4CC(=O)C(c5ccccc54)C3C2=O)c(C)c1 (stereo not drawn),3.35%
17,Cc1cnc(C)c(N2CCN(Cc3cn(C)nc3-c3cccc(Cl)c3)CC2)n1,-13.9%
18,CCCNC(=O)NS(=O)(=O)c1ccc(Cl)cc1,14.8%
19,CC(/C=N/NC(=O)Cn1cnc2c1c(=O)n(C)c(=O)n2C)=C\c1ccco1,-1.08%
